Experimental data from PubChem BioAssay (NCI).
Values joined by “and” are separate entries in the source; they are usually repeats but may differ in a detail not shown here. Equal entries are not always repeated.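 96-well plates; 48 h exposure; 5 concentrations. Endpoints by linear interpolation between flanking doses. Not reached: highest tested concentration assigned. GI50: concentration for 50% inhibition of growth. The concentration for full growth arrest is given as TGI.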 Numbered stars: 1 amine (or outer) side, 2 acyl side, 3 side chain; on linkers, the order of the positions; unused ones are H or OH. Bridge positions count the residues as written; N and C are the ends. Square brackets hold non-standard residues; d marks the D form. Peptide text beside a SMILES is read from it. * marks the point of attachment. Phe(3,5-F2) = N[C@@H](Cc1cc(F)cc(F)c1)C(=O)O; Pro(4R-Me) = C[C@H]1CN[C@H](C(=O)O)C1; aThr = C[C@H](O)[C@H](N)C(=O)O; Pip = O=C(O)[C@@H]1CCCCN1; X8 = Fc1cc(C2CC2)ccc1N*; Abu = CC[C@H](N)C(=O)O; CO = O=C([*:1])[*:2]

System: NCI-H322M lung
Experiment: inhibition of tumour cell growth, NCI panel, 48 h

| Structure (SMILES) | TGI | GI50 |
| --- | --- | --- |
| O=c1[nH]nc(Cc2ccccc2)n1O | > 100 µM |  |
| COc1cccc(CC(C)N)c1 (stereo not given) | > 100 µM |  |
| O=c1c(C(=Nc2ccccc2)c2ccccc2)c[nH]n1-c1ccccc1 | > 100 µM |  |
| O=Cc1c(Cn2ccnc2)c2cc([N+](=O)[O-])ccc2n1Cc1ccccc1 | > 100 µM |  |
| Nc1c(C(=O)Nc2ccccn2)sc2nc3c(cc12)CCCCC3 | > 50 µM | 3.99 µM |
| Cn1nc(N)nc1N=S(C)(C)=N | > 100 µM |  |
| CC(=NCC(=O)O)c1ccccc1 | > 100 µM |  |
| CC(O)(CCCCCl)c1nc2ccccc2s1 (stereo not given) | > 100 µM |  |
| N#Cc1ccc(Sc2ccccc2)cc1C#N | > 100 µM |  |
| Cc1n[nH]c(=O)n1-c1cccnc1 | > 100 µM |  |
| ClC1=C(Cl)C(Cl)=C(Cl)C1=Cc1ccccc1 | 3.57 µM | 1.64 µM |
| COC(=O)C(CCC1CC(OC)N(C(=O)OCc2ccccc2)C1)N=Cc1ccccc1 (stereo not given) | > 100 µM |  |
| COc1cc2oc(-c3ccc4c(c3)OCO4)c(OC)c(=O)c2c(OC)c1OC | > 100 µM |  |
| O=C(Nc1ccc(Oc2cccc(Cl)c2)c(Cl)c1)c1cnccn1 | > 50 µM | 0.896 µM |
| O=C1OC(=O)C2=C1C(c1cccs1)C=C(c1cccnc1)N2c1ccncc1 (stereo not given) | 31.6 µM |  |
| COc1cccc2cc(N(C)c3ncnc4ccccc34)ccc12 | 17.9 µM | < 0.0136 µM |
| CC(C)(C)OC(=O)NCCCCCCC(=O)Cc1ccccc1 | > 100 µM |  |
| O=C(O)CCC(NC(=O)c1ccc(Nc2nc3ccc(C(F)(F)F)cc3nc2-c2ccccc2)cc1)C(=O)O (stereo not given) | > 100 µM |  |
| CN(C)CCNC(=O)c1cnn(C)c1[N+](=O)[O-] | > 100 µM |  |
| CC1SC(c2ccc(Cl)c(Cl)c2)N(NC(=O)C(O)c2ccccc2)C1=O (stereo not given) | > 100 µM | 60.8 µM |
| O=C(c1ccccc1)c1nc2ccc(Cl)cc2c2c1Cc1ccccc1-2 | > 100 µM |  |
| OC1(c2ccccc2)CCCCCCCCC(O)(c2ccccc2)CCCCCCCC1 (stereo not given) | > 100 µM |  |
| N=C1S/C(=C/c2ccc(-c3ccc4c(c3)C(=O)NC4=O)o2)C(=O)N1c1ccc(Br)cc1 | > 100 µM | > 100 µM |
| COc1cc2c(c(OC)c1OC)-c1ccc(SC)c(=O)cc1[C@@H](OC(=O)c1ccncc1)CC2 | > 100 µM |  |
| CCC1([N+](=O)[O-])CC2C=CC1C2 (stereo not given) | > 100 µM |  |

| Structure (SMILES) | TGI | GI50 |
| --- | --- | --- |
| CCOC(=O)N1C(=O)C2C3C=CC(C2C1=O)C1C2C(=O)N(C(=O)OCC)C(=O)C2C31 (stereo not given) | > 100 µM |  |
| Clc1ccc(CSC2=NCCN2)cc1Cl | 48.3 µM |  |
| FC(F)(F)c1ccc(CNc2ccc(Cc3c[nH]c4ncc(Cl)cc34)cn2)cn1 | 30.8 µM and > 10 µM | 11.3 µM and > 10 µM |
| Fc1ccc(-c2nnc3sc(-c4cc(Cl)cc(Cl)c4)nn23)cc1Cl | > 100 µM | 32.6 µM |
| COC(=O)CCC1(NS(=O)(=O)c2ccc(C)cc2)CCC(C(C)(C)C)CC1 (stereo not given) | 73 µM |  |
| C/C=C\C(CC(=O)O)CN1CCC2=C(C1)C(S(=O)(=O)C(F)(F)F)c1ccccc12 (stereo not given) | > 100 µM |  |
| N#C/C(=C\c1c(Cl)cccc1Cl)c1ccccc1 | > 100 µM |  |
| CCC(=C/[C@H](C)C/C=C/C(C)=C/[C@@H](C)C(=O)[C@@H](C)[C@H](O)[C@@H](C)CC)/C=C/[C@@H]1OC(=O)C=C[C@@H]1C | 8.16 µM | < 0.005 µM |
| CN(CCNC(=O)c1nn(-c2ccccc2)c2c1ccc1ccccc12)CCNC(=O)c1nn(-c2ccccc2)c2c1ccc1ccccc12 | 13.2 µM |  |
| Cn1c2ccccc2c2ccc3c(c21)C(=O)C=CC3=O | 53.2 µM |  |
| COc1ccccc1-n1c(C)nc2ccccc2c1=O | > 100 µM |  |
| CCn1ncc(Oc2c(Cl)cc(N)cc2Cl)c(Cl)c1=O | > 100 µM |  |
| O=C1C(=O)c2ccccc2C(O)=C1Cc1ccccc1 | > 100 µM |  |
| Oc1ccc(-c2cn3ccsc3n2)cc1O | > 100 µM | > 100 µM |
| COCCNCCc1cccc(Nc2ncc3c(n2)-c2ccccc2C(c2ccccc2F)C3)c1 (stereo not given) | 3.06 µM and 3.05 µM | 1.64 µM and 1.65 µM |
| CSc1nc(SC)c2cnn(CC3CO3)c2n1 (stereo not given) | > 83.4 µM |  |
| Clc1ccc(C2ON=C(c3ccccc3)N2C23CC4CC(CC(C4)C2)C3)c(Cl)c1 (stereo not given) | > 10 µM |  |
| CN(C)CCNC(=O)c1cc([N+](=O)[O-])cn1C | > 100 µM |  |
| CC/C=C\C/C=C\C[C@H]1C/C=C2/C(=O)C=C[C@@H]2C/C=C\CCC(=O)O1 | 8.3 µM | 4.08 µM |
| O=c1[nH]c2ccc(N=Cc3c(O)[nH]c4ccccc34)cc2[nH]1 | > 25 µM | > 25 µM |
| CC(=O)NC1=C(C)C(=O)c2c(nc3n2CCC3OC(=O)c2ccccc2)C1=O (stereo not given) | 13.4 µM |  |
| O=C1Nc2ccccc2C1(c1c[nH]c2ccccc12)c1c[nH]c2ccccc12 | 5.16 µM | 2.09 µM |
| CCC[C@H](N[C@H]1CCc2cc(F)cc(F)c2C1)C(=O)Nc1cn(C(C)(C)CNCC(C)(C)C)cn1 | > 100 µM | 32 µM and 42.3 µM |
| O=c1ccn(C2OC(COC3CCCCO3)C(OC3CCCCO3)C2OC2CCCCO2)c(=O)n1-c1ccccc1 (stereo not given) | > 100 µM |  |
| Clc1ccc(C2=NOC(C3CCCCC3)C2)cc1 (stereo not given) | > 100 µM |  |

| Structure (SMILES) | TGI | GI50 |
| --- | --- | --- |
| CC(=O)OCC1OC(N2C(=S)N[C@H]([C@@H](O)[C@H](O)[C@H](O)CO)[C@H]2O)C(OC(C)=O)C(OC(C)=O)C1OC(C)=O (stereo not given in full) | > 100 µM |  |
| FC(F)(F)CNc1nccc(-c2cnn3ncccc23)n1 | > 25 µM | 13.9 µM |
| COc1cc2c(cc1OCCCNC(=O)/C=C1/C[C@H]3C=Nc4cc(OCc5ccccc5)c(OC)cc4C(=O)N3C1)NC(=O)[C@@H]1CCCN1C2=O | > 100 µM | > 100 µM |
| NC(Cc1c[nH]c2ccccc12)P(=O)(O)O (stereo not given) | > 100 µM |  |
| CC(=O)Nc1ccc(NNc2cc(=O)n(C)c(=O)[nH]2)cc1 | 26.5 µM |  |
| O=[N+]([O-])c1ccc2scc3c4ccccc4nc-3c2c1 | 3.85 µM | 1.89 µM |
| Oc1ccc2c(c1)OCC1c3ccccc3OC21 (stereo not given) | > 100 µM |  |
| CC[C@@H]1NC(=O)[C@@H]2CCCCN2C(=O)[C@@H]2CCCN2C(=O)[C@@H](NC(=O)[C@H](Cc2cc(F)cc(F)c2)NC(=O)Nc2ccc(C3CC3)cc2F)[C@H](C)OC(=O)[C@@H]2C[C@@H](C)CN2C1=O ({X8-CO}-[Phe(3,5-F2)][aThr]P[Pip][Abu][Pro(4R-Me)]; ester 2-C) | 8.27 µM | 0.361 µM |
| O=C(CNc1c(Cl)cccc1Cl)Nc1ccc(-c2nc3ccccc3s2)cc1 | 4.36 µM | 2.07 µM |
| O=C(/C=C/c1cccc([N+](=O)[O-])c1)c1cccnc1 | > 100 µM |  |
| CC(=O)OC1Oc2ccc(C)cc2-c2oc(=O)c(-c3cc4ccccc4oc3=O)cc21 (stereo not given) | 22.6 µM | 8.19 µM |
| NC(=O)n1ncc(Cl)c(Cl)c1=O | > 100 µM |  |
| CCCCCCCC/C=C\CCCCCCC/C=C1/C[C@](/C=C/C(=O)OC)(CO)OC1=O | 30.5 µM |  |
| C=C(C)C(CC=C(C)C)Cc1c(O)cc(OC)c2c1OC(c1ccc(O)cc1O)C(O)C2=O (stereo not given) | 34.1 µM |  |
| Cc1c2cnccc2c(C)c2c1c1ccccc1n2CC1CO1 (stereo not given) | 5.74 µM |  |
| O=C1c2ccc3cc(CCl)cc(O)c3c2C(=O)c2cccc(O)c21 | > 10 µM |  |
| CCCCn1c(C)c(C(=O)CC)c(C(=O)NCCN2CCN(c3ccccc3Cl)CC2)c1C | 32.4 µM |  |
| CC1(C)C(=NN=C(N)N)C(C)(C)C1=NN=C(N)N | > 100 µM |  |
| SCCCSCCSCCCSCCS | > 100 µM |  |
| c1ccc(CSc2nnc3c4c5c(sc4nc(-c4cccnc4)n23)CCCCCC5)cc1 | 20 µM | 5.57 µM |
| O=C1CC2(CCC(O)(c3cccc4ccccc34)C(C(=O)c3cccc4ccccc34)C2)C(=O)c2ccccc2N1 (stereo not given) | > 100 µM |  |
| COCCCCCC(=O)CP(=O)(OC)OC | > 100 µM |  |
| CC1=C(O)C(=O)C2C(=O)C1C(C)C2c1ccc(C)cc1 (stereo not given) | > 100 µM |  |
